Source: PubChem BioAssay AID602310 (National Center for Advancing Translational Sciences (NCATS), 2012)
In all, about 410,000 compounds went through this assay and about 310 (0.076%) were called active. This list was built around the results that the source calls inconclusive (neither active nor inactive); the mix of calls is not that of the screen. Calls follow the shape of the dose curve; as a rule, active = well fitted curve in the direction sought with a large enough effect; inconclusive = small, poorly fitted or top-dose-only effect; inactive = flat fitted curve, though single readings scatter. Where the call is inconclusive, the potency comes from a doubtful curve fit.

molecular target: DNA dC->dU-editing enzyme APOBEC-3G (Homo sapiens) (UniProt Q9HC16); assay: qHTS for Inhibitors of Vif-A3G Interactions: qHTS; settings: HeLa A3G-eYFP + Vif (tagged APOBEC3G with the HIV-1 protein that degrades it), YFP fluorescence, overnight; series mostly up to 46.1 µM; also: nearly all actives have a fitted effect of over 60% in size
Method in brief: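 HeLa cells stably expressing Vif and C-terminally eYFP-tagged A3G, seeded overnight at 37 deg C, then exposed to compound by pintool overnight at 37 deg C. Rise in yellow fluorescence (Ex 488/Em 500-530, Acumen) marks blocked Vif-driven A3G degradation.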
Potency is read from the fitted curve at half-maximal effect; tags tell the direction and shape of the fitted curve.

Sequence of UniProt Q9HC16 (Q9HC16 whole entry, looked up): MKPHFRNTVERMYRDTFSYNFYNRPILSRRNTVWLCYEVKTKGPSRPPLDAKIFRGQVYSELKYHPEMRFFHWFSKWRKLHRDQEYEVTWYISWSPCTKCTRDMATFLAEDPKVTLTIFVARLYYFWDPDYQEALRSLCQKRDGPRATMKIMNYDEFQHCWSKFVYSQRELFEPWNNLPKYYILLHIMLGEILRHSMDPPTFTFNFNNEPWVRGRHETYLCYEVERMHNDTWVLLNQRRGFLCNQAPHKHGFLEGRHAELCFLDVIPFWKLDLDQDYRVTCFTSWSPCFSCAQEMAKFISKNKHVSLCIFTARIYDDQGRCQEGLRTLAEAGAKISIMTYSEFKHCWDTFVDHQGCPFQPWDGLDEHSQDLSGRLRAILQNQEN

| SMILES | Potency |
| --- | --- |
| COc1ccc2c(-c3ccccc3)cc(N3CCOCC3)nc2c1 | inconclusive: 17.8 µM [inhibitor, single point] |
| COc1ccc(N(C)C2=NS(=O)(=O)c3ccccc32)cc1 | inconclusive: 2 µM [inhibitor, full curve, poor fit] |
| CC(C)CC1=NN2C(=N)/C(=C\c3coc4ccccc4c3=O)C(=O)N=C2S1 | inconclusive: 12.6 µM [inhibitor, single point] |
| COc1ccc(-c2nnc(SCC(=O)c3cc(C)n(Cc4cccs4)c3C)o2)cc1 | inactive |
| CC(C)C1C(=O)N(Cc2cn(CCC3OCCCO3)nn2)CCS(=O)(=O)N1Cc1ccc(-c2cccc(CO)c2)cc1 (stereo not drawn) | inconclusive: 8.91 µM [inhibitor, partial curve] |
| CC(=O)Nc1cccc(-c2ccnc3c2CC(C(=O)Nc2ccc(C(C)C)cc2)O3)c1 (stereo not drawn) | inactive |
| CCCCOC(=O)Cn1c2ccc(OC)cc2c2nc3ccccc3nc21 | inconclusive: 15.8 µM [inhibitor, partial curve, poor fit] |
| Cn1ccsc1=NC(=O)c1ccc(S(C)(=O)=O)c([N+](=O)[O-])c1 | inconclusive: 35.5 µM [inhibitor, single point] |
| CC(NC(=O)COC(=O)Cc1ccsc1)C1CC2CCC1C2 (stereo not drawn) | inactive |
| COC(=O)c1ccccc1NC(=O)c1cccc(COc2ccccc2Cl)c1 | inconclusive: 3.55 µM [inhibitor, full curve] |
| O=C(CN1CCOCC1)Nc1ncc(Cc2ccccc2Cl)s1 | inactive |
| C=C1C(=O)C=C2CN(C(=O)c3ccccc3)[C@@](Cc3ccc(F)cc3)(C(=O)OC)[C@@H]12 | active: 7.08 µM |
| COc1cc(OC)c(/C=C/c2cc(/C=C/c3c(OC)cc(OC)cc3OC)[n+](C)c3ccccc23)c(OC)c1 | inactive |
| Cc1cc(C)c2c(CCl)cc(=O)oc2c1 | inconclusive: 3.55 µM [inhibitor, full curve, poor fit] |
| O=C(O)c1cc2c(N3CCC(Cc4ccccc4)CC3)ncnc2s1 | inconclusive: 25.1 µM [inhibitor, single point] |
| Cc1cc(SCC(=O)N/N=C/c2ccc(O)c(O)c2)c(C)cc1Br | inactive |
| CC(C)(C)c1ccc(N/N=C(\C#N)S(=O)(=O)C(C)(C)C)cc1 | inactive |
| O=S(=O)(NN1CCOCC1)c1ccc(Cl)s1 | inactive |
| Cc1ccc(-n2c(-c3ccc(Cl)cc3Cl)n[nH]c2=S)cc1 | inconclusive: 35.5 µM [inhibitor, single point] |
| O=C(COc1ccc(Br)cc1)NCCN1CCCC1 | inconclusive: 35.5 µM [inhibitor, single point] |
| O=C(Cn1ncn2c(cc3ccccc32)c1=O)NCc1ccc(F)cc1 | inconclusive: 5.62 µM [inhibitor, single point] |
| O=C(COc1ccccc1F)Nc1cc(S(=O)(=O)Nc2cccc(Cl)c2)ccc1O | inactive |
| O=C(NNc1nc(Nc2ccccc2)nc(N2CCOCC2)n1)Nc1ccc(Cl)cc1 | inconclusive: 20 µM [inhibitor, single point] |

| SMILES | Potency |
| --- | --- |
| COc1cccc(-c2cnc3c(NC=O)cc(-c4ccc(N(C)C)cc4)cn23)c1 | inconclusive: 2.51 µM [inhibitor, full curve, poor fit] |
| Cc1sc(-c2cc3c([nH]c2=O)CC(c2ccccc2)CC3=O)nc1-c1ccc(Cl)cc1 (stereo not drawn) | active: 10 µM |
| CCCCS(=O)(=O)c1oc(-c2ccc(F)cc2)nc1S(=O)(=O)c1ccc(C)cc1 | inconclusive: 20 µM [inhibitor, single point] |
| CC(C)CNC(=O)NC1(C(F)(F)F)Oc2ccccc2O1 | inconclusive: 35.5 µM [inhibitor, single point] |
| Cc1ccc2oc(=O)n(Cc3ccccc3OC(C)C)c2c1 | inactive |
| CCc1ccc([C@@H]2C[C@H]3[C@@H](CN2S(=O)(=O)c2ccc(C)cc2)C(=O)C[C@@H](c2ccc(C)cc2)N3S(=O)(=O)c2ccc(C)cc2)cc1 | inactive |
| COc1ccc(C(O)c2nc3ccccc3n2C(C)C)cc1 (stereo not drawn) | inconclusive: 11.2 µM [inhibitor, partial curve, poor fit] |
| CN1\C(=C/C=C/C=C/C=[N+](C)C)C(C)(C)c2ccccc21 | inconclusive: 8.91 µM [inhibitor, partial curve] |
| COc1ccc2c(c1)C/C(=C\c1ccc(N(C)C)cc1)C2=O | inconclusive: 5.62 µM [inhibitor, single point] |
| CCOc1cccc2cc(S(=O)(=O)c3ccccc3F)c(=O)oc12 | inconclusive: 12.6 µM [inhibitor, single point] |
| CC(C)(C)c1ccc(C(=O)NCC(c2ccc(Cl)cc2)N2CCOCC2)cc1 (stereo not drawn) | inactive |
| Nc1ccccc1SC(CC(=O)c1ccccc1)c1ccccc1 (stereo not drawn) | inactive |
| CN(C)CCCN1c2ccc3ccccc3c2Sc2cccc(Cl)c21 | inconclusive: 35.5 µM [inhibitor, single point] |
| COc1ccccc1Cn1c(=S)[nH]c2ccccc2c1=O | inconclusive: 20 µM [inhibitor, partial curve, poor fit] |
| Cc1c(C(=O)C(=O)N2CCCc3ccccc32)c2ccccc2n1C | inconclusive: 10 µM [inhibitor, partial curve, poor fit] |
| CCOc1ccc(CN(C)C(=O)CCl)cc1 | inconclusive: 35.5 µM [inhibitor, single point] |
| CC1(C(=O)NCc2ccc(F)c(F)c2)Cc2c(-c3ccc4c(c3)OCO4)ccnc2O1 (stereo not drawn) | inconclusive: 1.58 µM [inhibitor, full curve, poor fit] |
| COc1ccc(C2c3cc(OC)c(OC)cc3CC(=O)N2c2ccc(C)c(F)c2)cc1 (stereo not drawn) | inconclusive: 5.62 µM [inhibitor, full curve, poor fit] |
| CCOC(=O)C(=Cc1ccc(-c2ccsc2C(=O)OC)o1)C(=O)OCC | inactive |
| NC(=O)CC(NC(=O)Cc1cccc2ccccc12)c1ccc(NCCOc2ccccc2)c([N+](=O)[O-])c1 (stereo not drawn) | inconclusive: 35.5 µM [inhibitor, single point] |
| C=CC(=O)N1C/C(=C/c2ccccc2)C(=O)/C(=C\c2ccccc2)C1 | inconclusive: 0.562 µM [inhibitor, full curve, poor fit] |
| Cc1ccc(S(=O)(=O)Cc2ccc(C(=O)N3CCN(c4cccc(Cl)c4)CC3)o2)cc1 | inconclusive: 1.12 µM [inhibitor, full curve, poor fit] |
| CCCCOC(=O)CSC1=C(C#N)C(c2ccccc2OC)C(C#N)C(=O)N1 (stereo not drawn) | inactive |

| SMILES | Potency |
| --- | --- |
| CC1CC(C)CN(S(=O)(=O)c2ccc(C(C)(C)C)cc2)C1 (stereo not drawn) | inactive |
| COc1ccc2c(c1)C(=O)N1[C@H]3c4cc(Br)ccc4OC[C@@H]3[C@H](c3ccccc3)[C@]1(C)C(=O)N2 | inconclusive: 7.08 µM [inhibitor, full curve] |
| Cc1ccc(S(=O)(=O)N2[C@@H](c3ccccc3F)C(C(=O)O)=CC[C@H]2c2ccc(Cl)cc2)cc1 | inconclusive: 35.5 µM [inhibitor, single point] |
| Cc1ccc(N=C2NC(=O)/C(=C/c3cccn3C)S2)cc1 | active: 5.01 µM |
| CCOc1ccc(NC(=O)c2cc(OC)nc3ccccc23)cc1 | inconclusive: 0.631 µM [inhibitor, full curve, poor fit] |
| CCCC(=O)Nc1nc2ccc(NC(=O)c3ccc(Br)o3)cc2s1 | inactive |
| Cn1c(=O)c(C(=O)c2ccccc2)nc2ccccc21 | inactive |
| Cc1ccc2c(Cl)cc(Cl)c(O)c2n1 | inactive |
| CCN(CC)S(=O)(=O)c1cc(C(=O)Nc2ccccc2[N+](=O)[O-])ccc1Cl | inconclusive: 15.8 µM [inhibitor, single point] |
| Cc1cccc(Cn2cccc2CNS(=O)(=O)c2ccccc2F)c1 | inactive |
| NC(=S)N/N=C/c1ncc(C(F)(F)F)cc1Cl | inconclusive: 2.82 µM [inhibitor, full curve] |
| C/C=C(\CS(=O)(=O)c1ccccc1)S(=O)(=O)c1ccccc1 | inconclusive: 35.5 µM [inhibitor, single point] |
| CC1CCN(S(=O)(=O)c2ccc3c(c2)C(Cl)(Cl)C(=O)N3)CC1 | inconclusive: 25.1 µM [inhibitor, single point] |
| COc1cccc(C2CC(c3cccc(Br)c3)n3ncnc3N2)c1 (stereo not drawn) | inconclusive: 11.2 µM [inhibitor, partial curve, poor fit] |
| Fc1ccc2nc(Nc3nc4cc5c(cc4s3)OCO5)sc2c1 | inconclusive: 31.6 µM [inhibitor, single point] |
| COC(=O)NC(=C(Cl)Cl)S(=O)(=O)c1ccccc1 | inconclusive: 7.08 µM [inhibitor, partial curve] |
| CN(C)c1ccc(/C=N/NC(=O)c2ccc3c(c2)OCO3)cc1 | inconclusive: 14.1 µM [inhibitor, single point] |
| O=C(c1cc(-c2ccc(Br)cc2)on1)N1CCc2ccccc2C1 | inactive |
| COc1cc(-c2nc3nc(C)cc(C)n3c2Nc2ccc(Cl)cc2)ccc1O | inconclusive: 22.4 µM [inhibitor, single point] |
| COc1ccc(OCc2nnc(SCC(=O)c3ccccc3)o2)cc1 | inconclusive: 35.5 µM [inhibitor, single point] |
| COCC(=O)Nc1ccc(N2CCOCC2)c(S(=O)(=O)Nc2ccc(OC)cc2)c1 | inconclusive: 35.5 µM [inhibitor, single point] |
| CC(=O)N1CCc2nc3sc(C(=O)Nc4ccc(Cl)cc4F)c(N)c3c(C(F)(F)F)c2C1 | inconclusive: 3.98 µM [inhibitor, single point] |
